The source of these data is PubChem BioAssay AID360 (National Center for Advancing Translational Sciences (NCATS), 2006).

Structures are written as SMILES. In all, about 48,000 compounds went through this assay and about 550 (1.1%) were called active. Not shown: some 4% with an inconclusive outcome. Rule as the data show it: active = potency below about 15 µM; inconclusive = mostly about 16 µM to 33 µM; inactive = weaker than that. The list shows a part of the results.
Potency is read from the fitted curve at half-maximal effect.

Chain of UniProt P04062 (P04062 whole entry, looked up): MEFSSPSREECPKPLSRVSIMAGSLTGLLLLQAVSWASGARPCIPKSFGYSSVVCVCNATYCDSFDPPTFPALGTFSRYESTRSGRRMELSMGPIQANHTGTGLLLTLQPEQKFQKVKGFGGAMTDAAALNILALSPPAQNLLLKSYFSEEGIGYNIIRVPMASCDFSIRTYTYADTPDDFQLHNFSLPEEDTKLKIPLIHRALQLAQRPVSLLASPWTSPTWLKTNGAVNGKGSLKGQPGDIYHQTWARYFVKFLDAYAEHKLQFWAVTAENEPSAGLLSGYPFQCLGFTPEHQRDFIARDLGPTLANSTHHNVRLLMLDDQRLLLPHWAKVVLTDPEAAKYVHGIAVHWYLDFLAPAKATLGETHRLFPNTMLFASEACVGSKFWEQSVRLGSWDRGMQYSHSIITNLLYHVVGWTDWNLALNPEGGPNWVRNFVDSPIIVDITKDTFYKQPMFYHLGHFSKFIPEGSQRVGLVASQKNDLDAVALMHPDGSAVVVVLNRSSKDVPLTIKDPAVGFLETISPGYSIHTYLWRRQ

The target of this assay is Lysosomal acid glucosylceramidase (Homo sapiens) (UniProt P04062). As to the kind of experiment: Glucocerebrosidase.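 Also: the screen sought inhibitors.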 The following applies: purified enzyme, resorufin glucoside fluorescence (screen aimed at inhibitors), 20 min; series mostly up to 77 µM. The method, boiled down:
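Normal human glucocerebrosidase (0.2 nM final) was assayed with resorufin β-D-glucopyranoside (30 uM final) in 50mM citric acid/KH2PO4, 10mM sodium taurocholate, 0.01% tween-20, pH 5.9. Compounds were titrated; fluorescence (Ex 548, Em 600) read after 20 min at RT.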
For the compound `Cc1ccc(S(=O)(=O)N2CCC(C(=O)N[C@@H](C)C(=O)NCC3CCCO3)CC2)cc1` (some centres not stated), the Potency was inactive: > 76.9 µM.
As for `O=C(CN1C(=O)C2C3C=CC(C3)C2C1=O)NCCN1CCCc2ccccc21` (configuration not stated), the figure is inactive: > 76.9 µM.
As for `CCOC(=O)c1[nH]c2ccc(OC)cc2c1N=CN(C)C`, the figure is inactive: > 76.9 µM.
Turning to `O=C(CSc1nn(-c2ccccc2)c(=S)s1)Nn1cnnc1`, the Potency was inactive: > 76.9 µM.
Turning to `CN(c1ccc(C(=O)N2CCc3ccccc3C2)cc1)S(C)(=O)=O`, the Potency is inactive: > 76.9 µM.
Consider `O=S(=O)(NCc1ccco1)c1cccc2cccnc12`, for which the Potency is inactive: > 76.9 µM.
For `CC(=O)N1CSCC1C(=O)O` (configuration not stated) the value was inactive: > 76.9 µM; for `CC1CCCC(C)N1C(=O)CSc1nnnn1Cc1ccccc1` (configuration not stated), inactive: > 76.9 µM.
As for `O=C(C1CCN(S(=O)(=O)c2ccc3ccccc3c2)CC1)N1CCN(c2ncccn2)CC1`, the figure is inactive: > 76.9 µM.
On to `COc1ccc(Nc2cc(C)nc(N3CCOCC3)n2)cc1`, for which the Potency was active: 10.7 µM.
`Cc1ccc2c(c1)-c1ccccc1S(=O)(=O)N2`: the Potency was inactive: > 76.9 µM.
For `CCOC(=O)N1CCN(C(=O)CCc2nc3sc4c(c3c(=O)[nH]2)CCCC4)CC1` the value was inactive: > 76.9 µM; for `COC(=O)C1=C(N)Oc2cc(C)oc(=O)c2C1c1cccnc1` (configuration not stated), inactive: > 76.9 µM; for `O=C(CSc1nnc(NC2CCCCC2)s1)NC1CCS(=O)(=O)C1` (configuration not stated), inactive: > 76.9 µM.
As for `COc1ccc(NS(=O)(=O)c2cccc3cccnc23)cc1`, the figure is inactive: > 76.9 µM; as for `CC1=C(C(=O)Nc2ccccc2)C(c2cccs2)n2nnnc2N1` (configuration not stated), inactive: > 76.9 µM.
Take `CCOc1ccc2nc(NC(=O)Cn3cnc4c3c(=O)n(C)c(=O)n4C)sc2c1`: the Potency is inactive: > 76.9 µM.
For `NC(=O)CN1CCCN(S(=O)(=O)c2ccc(Br)cc2)CC1` the value was inactive: > 76.9 µM; for `CC(CN(C)Cc1ccccc1)OC(=O)c1cccs1` (configuration not stated), inactive: > 76.9 µM; for `COC(=O)C1=CN(C)C=C(C(=O)OC)C1c1ccccc1Cl`, inactive: > 76.9 µM.
For `O=S(=O)(c1ccc(Cl)cc1)c1ccccn1`, the Potency is inactive: > 76.9 µM.
As for `O=C(O)c1ccc(F)c(S(=O)(=O)Nc2ccccc2Cl)c1`, the figure is inactive: > 76.9 µM.
For `Cc1cc(C(=O)N(C)Cc2ccc(Br)cc2)no1` the value was inactive: > 76.9 µM; for `CCOC(=O)c1c(C)c(C(=O)NCCN2CCOCC2)c(C)n1C`, inactive: > 76.9 µM; for `COc1ccccc1C(=O)Nc1cccc(N(C)S(C)(=O)=O)c1`, inactive: > 76.9 µM.
For `COc1ccc(-n2c(=O)cc(N3CCN(c4ccccc4F)CC3)[nH]c2=O)cc1` the value was inactive: > 76.9 µM; for `CCOC(=O)N1CCC(NC(=O)C2CCN(S(=O)(=O)N3CCCC3)CC2)CC1`, inactive: > 76.9 µM; for `CC(C)C1N=C2c3ccccc3N=C(SCc3cc(=O)n4cc(Cl)ccc4n3)N2C1=O` (configuration not stated), inactive: > 76.9 µM.
For the compound `O=C(NCC1CCCO1)C1CCN(S(=O)(=O)c2cccc3nonc23)CC1` (configuration not stated), the Potency was inactive: > 76.9 µM.
For `CCCCc1cc(=O)oc2c(CN3CCCC3)c(O)c(Cl)cc12` the value was inactive: > 76.9 µM; for `CCOc1cc(C)nc(N2CCC(C(=O)Nc3ccccc3OCC)CC2)n1`, inactive: > 76.9 µM.
With `COc1ccc2nc(NC(=O)C3CCN(S(=O)(=O)c4cccc5nsnc45)CC3)sc2c1`, the Potency is inactive: > 76.9 µM.
Turning to `Cc1ccc(NS(=O)(=O)c2ccc(OCC(=O)NCc3ccco3)cc2)cc1`, the Potency is inactive: > 76.9 µM.
For `O=C(NCCCCC(NC(=O)C1CCCCC1)C(=O)O)c1ccccc1` (configuration not stated) the value was inactive: > 76.9 µM; for `Clc1cccc(-c2nn3c(-c4ccncc4)nnc3s2)c1`, inactive: > 76.9 µM; for `Cn1c(=O)[nH]c(=O)c2c1nc(N1CCOCC1)n2CCSc1ncccn1`, inactive: > 76.9 µM.
Regarding `O=C(NCc1cccnc1)C1CCCCN1S(=O)(=O)c1ccc(F)cc1` (configuration not stated), the Potency was inactive: > 76.9 µM.
As to `CC(=O)NC(C1C(=O)CC(C)(C)CC1=O)(C(F)(F)F)C(F)(F)F`, the Potency was inactive: > 76.9 µM.
As for `O=S(=O)(NCCc1ccccn1)c1ccc(F)c(F)c1`, the Potency is inactive: > 76.9 µM.
For `O=C(NCCCN1CCN(Cc2ccccc2)CC1)C1CCN(c2nnc(-n3cccc3)s2)CC1` the value was inactive: > 76.9 µM; for `COCC(=O)Nc1nc2n(n1)C(c1ccccc1)CC(c1ccc(OC)cc1)N2` (configuration not stated), inactive: > 76.9 µM; for `Cc1cc(NC(=O)c2cnn3cccnc23)n(-c2ccccc2)n1`, inactive: > 76.9 µM.
For `C=CCn1c(O)c(CN2CCOCC2)c(C)c(C#N)c1=O`, the Potency was inactive: > 76.9 µM.
For `Cc1ccc(Cn2c(-n3nc(C)cc3C)nc3c2c(=O)[nH]c(=O)n3C)cc1`, the Potency is inactive: > 76.9 µM.
Turning to `Cc1cc(C)c(C#N)c(SCC(=O)CC(=O)OC(C)C)n1`, the Potency was inactive: > 76.9 µM.
As for `O=C(O)CCc1ccc(-c2ccc(F)cc2)n1CC(=O)O`, the figure is inactive: > 76.9 µM; as for `Cc1nc2ccc(S(=O)(=O)N(C)CC(=O)NCc3ccc4c(c3)OCO4)cc2s1`, inactive: > 76.9 µM; as for `Cc1cccc(C)c1NC(=O)CSc1nnc([C@@H]2CCCN2C(=O)OC(C)(C)C)o1`, inactive: > 76.9 µM.
For `CCCC(=O)NC1=C(C#N)C2(CCCC2)Cc2ccccc21` the value was inactive: > 76.9 µM; for `COc1ccc(N2C(=O)CC(Nc3ccc(N4CCOCC4)cc3)C2=O)c(OC)c1` (configuration not stated), inactive: > 76.9 µM.
Consider `CCOC(=O)CSc1nnc(CSc2nc3ccccc3c(=O)[nH]2)n1-c1ccccc1`, for which the Potency was inactive: > 76.9 µM.
As for `Cc1nc2c(-c3ccc(F)cc3)c(C)nn2c(N2CCOCC2)c1C`, the Potency is inactive: > 76.9 µM.
For `CCn1c(O)c(/C=N/n2cnnc2)sc1=S` the value was inactive: > 76.9 µM; for `O=C(COC(=O)c1cccnc1Nc1cccc(C(F)(F)F)c1)NCCN1C(=O)CSC1=O`, inactive: > 76.9 µM; for `CC1CCCCN1C(=O)CSc1nnc(-c2cccnc2)n1C1CCCCC1` (configuration not stated), inactive: > 76.9 µM.
For the compound `COc1ccc(OC)c(Nc2cc(C(=O)NCCCN3CCOCC3)c3ccccc3n2)c1`, the Potency entry is “inactive”.
As for `Cc1c(N=C2NC(=O)C(CC(=O)Nc3ccc(Cl)cc3)S2)c(=O)n(-c2ccccc2)n1C` (configuration not stated), the figure is inactive: > 76.9 µM.
